Test results published in the supplement of paper PMC7826260.
Some of the results follow. The data describe in vitro nicking of single-stranded DNA by Rep domains at 3 µM enzyme and 37 °C for 1 h; the strands have 90 letters, of which the middle is given. A value is the log2 ratio of uncut reads to the pool without enzyme; the lower, the more was cut; hits are not called. Because reads are shares of a total, they shift together; uncut strands gain when others are lost, and binding without cutting may add a little.

These sequences were tested on T1, Rep nickase domain of tomato golden mosaic virus (assay: uncleaved DNA left, log2 of reads against the no-enzyme library (log2 ratio); higher = less cleavage (more negative = more Rep cleavage of the k-mer); sequences stand for … in CTCGTCCG…ACCGGAGA).
T1 sequence (Rep 1-124, printed without the tag): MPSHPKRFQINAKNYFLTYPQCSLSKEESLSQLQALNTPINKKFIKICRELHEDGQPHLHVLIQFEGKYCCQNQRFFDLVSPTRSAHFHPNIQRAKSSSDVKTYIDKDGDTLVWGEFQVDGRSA
Method: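 A pool of 90-nt single-stranded DNAs with seven random bases just before the constant AC of the nick site (name = the seven bases) was cut by 3 µM recombinant His6-SUMO-tagged Rep nickase domain (300 nM DNA, 50 mM HEPES pH 8.0, 50 mM NaCl, 1 mM MnCl2, 1 h, 37 °C, three replicates). Uncut DNA was amplified and sequenced.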
TTCTAAA was tested, and the “uncleaved DNA left (log2)” value was 0.051.
In the case of CTTACAG, the “uncleaved DNA left (log2)” value is reported as -0.0175.
In the case of ATTGTAG, the “uncleaved DNA left (log2)” value is reported as -0.0287.
With ATACATG the “uncleaved DNA left (log2)” value was 0.094.
With TATGTTA the “uncleaved DNA left (log2)” value was -0.135.
GTCTGGT was tested, and the “uncleaved DNA left (log2)” value was 0.0445.
CCCGCTT was tested, and the “uncleaved DNA left (log2)” value was -0.173.
For CACCTGC, the “uncleaved DNA left (log2)” value was -0.113.
In the case of CCGTGGG, the “uncleaved DNA left (log2)” value is reported as -0.0274.
In the case of ACCAGGC, the “uncleaved DNA left (log2)” value is reported as 0.0677.
GGCGCCC was tested, and the “uncleaved DNA left (log2)” value was 0.029.
GCTCTTT was tested, and the “uncleaved DNA left (log2)” value was -0.0619.
In the case of GGGCATC, the “uncleaved DNA left (log2)” value is reported as -0.0971.
CCATGAA was tested, and the “uncleaved DNA left (log2)” value was -0.00298.
For CAGCGGG, the “uncleaved DNA left (log2)” value was 0.195.
CGAGACG was tested, and the “uncleaved DNA left (log2)” value was 0.0323.
With AGTCCGG the “uncleaved DNA left (log2)” value was 0.0916.
In the case of GCACAGA, the “uncleaved DNA left (log2)” value is reported as -0.0104.
With TTCGTTC the “uncleaved DNA left (log2)” value was -0.0604.
In the case of TACACGC, the “uncleaved DNA left (log2)” value is reported as -0.127.
ACCGAAT was tested, and the “uncleaved DNA left (log2)” value was -0.0332.
With GTCAAGC the “uncleaved DNA left (log2)” value was -0.00265.
In the case of AACACTA, the “uncleaved DNA left (log2)” value is reported as -0.0207.
With CTTTGGA the “uncleaved DNA left (log2)” value was -0.0756.
In the case of GGAGATC, the “uncleaved DNA left (log2)” value is reported as 0.102.
TTTGCAA was tested, and the “uncleaved DNA left (log2)” value was -0.0149.
With CTCCCAG the “uncleaved DNA left (log2)” value was -0.0378.
With ATTTGCA the “uncleaved DNA left (log2)” value was -0.0227.
In the case of ATGACCA, the “uncleaved DNA left (log2)” value is reported as -0.15.
With TCCTTGC the “uncleaved DNA left (log2)” value was -0.0577.
With GTATGAC the “uncleaved DNA left (log2)” value was 0.085.
In the case of AGTTGAA, the “uncleaved DNA left (log2)” value is reported as 0.048.
For CTGGATG, the “uncleaved DNA left (log2)” value was 0.0939.
For GTAGCGT, the “uncleaved DNA left (log2)” value was 0.00965.
For AAGTTTC, the “uncleaved DNA left (log2)” value was -0.106.
For CATAACG, the “uncleaved DNA left (log2)” value was -0.0502.
For GGTAAGC, the “uncleaved DNA left (log2)” value was 0.0141.
With TTGGCTT the “uncleaved DNA left (log2)” value was -0.0787.
In the case of GGAACAA, the “uncleaved DNA left (log2)” value is reported as -0.0583.
ATATAAG was tested, and the “uncleaved DNA left (log2)” value was 0.0768.
